Data taken from PubChem BioAssay AID1645882 (National Center for Advancing Translational Sciences (NCATS), 2021).
Hit rate of the full screen: of about 16,000 compounds, about 120 (0.75%) were called active. Another 4% or so got no clear call; they are omitted. The call rests on the fitted dose curve; in most records, active means well fitted inhibition curve with a large enough effect; inconclusive means small, poorly fitted or top-dose-only effect; inactive means no such curve, though single readings can be large or run the other way. Some of the results follow.

Molecular target: Rap guanine nucleotide exchange factor 3 (Homo sapiens) (UniProt O95398)
Test: Validation qHTS for antagonist of cAMP-regulated guanine nucleotide exchange factor 3 (EPAC1); further: nearly all actives have a fitted effect of over 75% in size
Conditions: EPAC1 Rap1B-BODIPY-GDP exchange, fluorescence; series mostly up to 150 µM; activity change, negative = inhibition: at the top concentration
How it was run: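 EPAC1 (100 nM) mixed with 250 nM RAP1B-BODIPY-GDP and 50 uM GDP; compounds in concentration series, 5 min at room temperature. Fluorescence (ex 480/em 540 nm) read every 5 min for 30 min; normalized to ATA control and DMSO.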

Sequence of UniProt O95398 (O95398 whole entry, looked up): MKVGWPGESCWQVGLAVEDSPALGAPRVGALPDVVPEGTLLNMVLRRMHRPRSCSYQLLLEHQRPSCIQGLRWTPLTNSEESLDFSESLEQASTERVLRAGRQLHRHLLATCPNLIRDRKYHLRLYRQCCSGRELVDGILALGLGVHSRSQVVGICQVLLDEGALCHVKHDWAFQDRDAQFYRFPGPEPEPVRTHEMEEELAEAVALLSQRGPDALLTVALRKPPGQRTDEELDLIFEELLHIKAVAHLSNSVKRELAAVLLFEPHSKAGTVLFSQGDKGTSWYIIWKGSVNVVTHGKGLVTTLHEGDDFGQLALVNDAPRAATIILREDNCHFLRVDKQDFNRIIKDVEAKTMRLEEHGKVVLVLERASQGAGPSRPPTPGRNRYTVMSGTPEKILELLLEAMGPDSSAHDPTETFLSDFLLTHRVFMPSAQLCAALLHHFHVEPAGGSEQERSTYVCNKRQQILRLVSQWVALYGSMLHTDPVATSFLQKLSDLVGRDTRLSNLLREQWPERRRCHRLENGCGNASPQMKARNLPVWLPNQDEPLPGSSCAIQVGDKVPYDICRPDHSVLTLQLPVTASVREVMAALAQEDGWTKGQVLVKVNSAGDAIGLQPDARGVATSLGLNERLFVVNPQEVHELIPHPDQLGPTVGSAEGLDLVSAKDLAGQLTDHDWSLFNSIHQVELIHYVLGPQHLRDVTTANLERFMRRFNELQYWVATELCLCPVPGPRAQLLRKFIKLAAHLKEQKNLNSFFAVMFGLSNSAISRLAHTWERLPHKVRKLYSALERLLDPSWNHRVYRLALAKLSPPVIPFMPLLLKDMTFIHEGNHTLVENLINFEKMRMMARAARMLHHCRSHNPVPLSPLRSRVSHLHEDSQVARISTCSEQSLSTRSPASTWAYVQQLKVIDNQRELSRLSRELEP

Activity change, negative = inhibition, inactive:
CC(C)Cn1cnc2c(N)nc3ccccc3c21 -9.49%
O=C(NCCc1nnc2n1CCN(CC1CC=CCC1)CC2)c1ccc(F)cc1 (stereo not given) 8.11%
COC(=O)c1cc(CNC(=O)c2ccccc2F)cc(NC(=O)c2ccccc2OC)c1 4.39%
CN(C)c1ncc2nc(-c3cccc(C#N)c3)c(=O)n(C[C@H]3CCCO3)c2n1 -1.09%
CNc1nc(-c2cccnc2)nc2ccccc12 -20.5%
C[C@]12O[C@H](C[C@]1(O)CO)n1c3ccccc3c3c4c(c5c6ccccc6n2c5c31)CNC4=O -1.92%
C[N+]1(CC(=O)c2ccc(Br)cc2)CCOCC1 16.3%
Cc1nc2ccc(NC(=O)Nc3ccnc4cccnc34)cc2o1 -10.7%
C[N+]1(CC(=O)c2ccc(Cl)c(Cl)c2)CCOCC1 17.2%
C[C@@H](N)C(=O)O
COc1ccc2c(c1)CCc1cnc(-n3ncc(C(=O)NCCN4CCOCC4)c3C)nc1-2 15%
CC(C)Oc1ccc(C(=O)NCC2Cc3cc(Cl)cc(-c4ncccn4)c3O2)cc1 (stereo not given) -23.3%
CC(=O)Nc1ccccc1-c1nc(CNC(=O)c2ccc(-c3ccccc3F)cc2)c(C)o1 7.36%
Cc1ncc2c(c1CNC(=O)/C=C/c1cccs1)CCN(C(=O)C1CC(=O)OC13CCCCC3)C2 (stereo not given) 17.6%
O=C(c1csnn1)N1CCC2(CC1)CCN(c1ccncc1)CC2 -1.32%
CSCCC(N)C(=O)O (stereo not given) 21.4%
CCCCCCCCCCCCCCCCCCN(CCCCCCCCCCCCCCCCCC)c1ccccc1 9.69%
O=C(Nc1nccs1)[C@@H]1CC=C[C@@H]2CCN(Cc3ccc(Cl)c(Cl)c3)C(=O)[C@@H]21 2.65%
CCCCNC(=O)O[C@H]1C[C@@H]2CCN3C(=O)CCC[C@H]([C@H]1Cc1ccccc1)[C@H]23 11.1%
COC(=O)C1CCCCN1Cc1nc(N2CCCCC2)c2cc(OC)c(OC)cc2n1 (stereo not given) 9.84%
O=c1c(CCc2ccccc2)nc2cnc(N3CCNCC3)nc2n1Cc1ccc(F)cc1 16.1%
Nc1ccc(Cc2ccc(C=O)cc2)cc1 9.12%
O=C(O)CCC(=O)O 2.09%
CCO[C@H]1[C@H](NC(=O)c2cccnc2)c2ccccc2C12CCN(C(=O)c1cc(C)n(C)n1)CC2 7.04%
NC1=NCC2c3ccccc3Cc3ccccc3N12 (stereo not given)
Cc1nc2cc(NC(=O)[C@@H]3C[C@@H](Sc4ccccn4)CN3Cc3cccc(Cl)c3)ccc2s1 0.13%
O=C(C[C@H]1C(=O)N(c2ccccc2)C[C@@H]1Cc1ccccc1)Nc1ccccc1 -22.5%
c1ccc2c(Nc3ccncc3)nc(-c3ccc4c(c3)OCO4)nc2c1 -5.69%
CNc1nc(-c2ccc(N(C)C)cc2)nc2ccccc12 16%
COc1ccc(CN2[C@@H](CC(C)=O)c3cc(C(F)(F)F)ccc3S2(=O)=O)cc1 -2.84%
C=C1C[C@@]23CC4C5[C@@]6(C)C[C@H](O)C[C@@]57C2[C@H](O)[C@@H]1[C@H](O)[C@H]3[C@H]7N4C6 -3.68%
CO[C@H]1[C@H](NC(=O)c2ccco2)c2ccccc2C12CCN(Cc1ccc3cccc(F)c3n1)CC2 9.04%
COc1ccc(Oc2ncc3nc(C)c(=O)n(Cc4ccc(F)cc4)c3n2)cc1 -16.2%
Cc1c(C(=O)N2CCCCC2)sc2ncnc(NCCc3ccccn3)c12 -6.58%
Cn1c(=O)c(-c2ccccc2)nc2cncnc21 13.1%
Cc1c(C(=O)NCc2cccc(F)c2)sc2ncnc(NCC3CCCO3)c12 (stereo not given) 9.02%
CN(C)Cc1ccccc1-c1nc(NC2CC2)c2ccccc2n1 -6.94%
COc1ccccc1-c1cncnc1NCc1cccnc1 18.5%
COC(=O)CC1C(C)(C)C(=O)C2CC3C4=CC(=O)OC(c5ccoc5)[C@]4(C)CCC3[C@@]1(C)C2=O (stereo not given in full) -1.93%
COc1ccccc1CNc1ncnc2ccc(-c3ccccc3OC)cc12 -1.19%
CN1[C@H](CC(=O)c2ccccc2)CCC[C@H]1C[C@@H](O)c1ccccc1 14.6%
Cc1[nH]c2ccccc2c1/C=C/c1nccc2ccccc12 19.2%
COc1ccc(CN2C[C@H](Sc3nc4ccccc4[nH]3)C[C@H]2C(=O)N(C)C)c2ccccc12 6.16%
CS(=O)(=O)N1CCC2(CC1)CN(Cc1ccccc1)C2 6.57%
C=C[C@@H]1c2cc(C)ccc2N(S(=O)(=O)c2ccc(C)cc2)[C@H](c2ccccc2)C1(C#N)S(=O)(=O)c1ccccc1 (stereo not given in full) -7.48%
Cc1cccc(Nc2ccncc2S(=O)(=O)NC(=O)NC(C)C)c1
COc1ccc(C(=O)N2CCC[C@@]3(CCN(c4ncccn4)C3)C2)cc1 26.1%
O=c1c(CCc2ccccc2)nc2cnc(Nc3ccccc3)nc2n1Cc1cccs1 5.16%
CN(C)C(=O)c1ccc(-c2cc(NCc3ccccc3)ncn2)cc1 12.3%
O=S(=O)(c1ccccc1)N1CCC2(CCN(c3ccccc3)CC2)CC1 11.6%
O=C(O)CCCC[C@@H]1CCSS1 13% [at 75.8 µM]
C=N[C@@H](C(=O)N[C@@H]1C(=O)N2[C@@H]1SC(C)(C)[C@@H]2C(=O)O)c1ccccc1 13%
CC[N+](CC)(CC(=O)Nc1c(C)cccc1C)Cc1ccccc1
O=C1CCC[C@@H]2C[C@@]3(C[C@@H]4CCN1[C@H]24)Nc1cc(Cl)c(Cl)cc1NC3=NCc1ccccc1 -16%
COc1cc(NS(=O)(=O)c2ccc(N)cc2)nc(OC)n1
COc1cc2ccc(=O)oc2cc1O
CC1(C)O[C@@H]2[C@@H](CO[C@@]3(COS(N)(=O)=O)OC(C)(C)O[C@@H]23)O1 13%
Cc1cccc(CNc2cc(-c3ccc(C(=O)N(C)C)cc3)ncn2)c1 26.1%
O=c1c(-c2ccc(F)cc2)nc2cnc(N3CCNCC3)nc2n1-c1ccccc1 -3.13%
O=C1N=C2SCCN2C(=O)C1Cc1ccc(Cl)cc1 (stereo not given) 2.11%
c1ccc(CN(CCN(Cc2ccccn2)Cc2ccccn2)Cc2ccccn2)nc1 6.37% [at 201 µM]
CC1(S(=O)(=O)O)CC(=O)c2ccccc2C1=O (stereo not given) -3.24%
COc1ncc2ncc(=O)n(C3CC3)c2n1 -8.92%
C[C@]12CC[C@H]3[C@@H](CCC4=CC(=O)CC[C@@]43C)[C@@H]1CC[C@@H]2C(=O)CO 2.74% [at 75.8 µM]
NCCNC(=O)Cc1ccc(NC(=O)Cc2ccc(Nc3ncnc4c3ncn4[C@@H]3O[C@H](CO)[C@@H](O)[C@H]3O)cc2)cc1 18.6%
